In all, about 5,400 compounds were measured (“IFI”: median about 2, highest 2% from about 22 on). The list shows a part of the results.

The assay can be described thus: NOVARTIS: Inhibition Frequency Index (IFI) - the number of HTS assays where a compound showed > 50% inhibition/induction, expressed as a percentage of the number of assays in which the compound was tested. It is filed as functional.
Regarding `c1ccc(Cn2nnnc2CN2CCN(C(c3ccccc3)c3ccccc3)CC2)cc1`, the IFI was found to be 5.88%.

In the case of `NC1=NC(c2ccccc2)N(c2ccccc2)C(N)=N1` (stereo unspecified), the IFI turned out to be 1.57%.

As for `Cc1ccccc1CN1CCN(C/C=C/c2ccccc2)CCC1=O`, the IFI came out at 0.962%.

For `CCCCCCN(C(=O)c1ccc(Cl)cc1)C(CC)c1nc2ccccc2c(=O)n1-c1ccccc1OC` (stereo unspecified), the IFI turned out to be 1.92%.

`O=C(NC1CC1)c1ccc(CSCc2ccccc2Cl)o1` gave an IFI of 0%.

In turn, `Cc1ccc(N=C(Nc2ccc(C)cc2)Nc2ccccc2O)cc1` registered an IFI of 3.3%.

Regarding `CC(NCCCN(C)C)c1cc(C(C)(C)C)cc2c1CCC2(C)C` (stereo unspecified), the IFI was determined as 10.6%.

The compound `COC(=O)[C@@H]1C[C@@H](NC(=O)c2ccc(OC)cc2OC)CN1Cc1cc(C)ccc1C` returned an IFI of 1.71%.

`Cc1ccc(N=C2S/C(=C\c3ccccc3)C(=O)N2c2ccc(C)cc2)cc1`: the IFI turned out to be 1.21%.

Compound `CC1=CC(=C(C#N)c2nc3ccccc3s2)C=C(C)N1CC1CCCO1` (stereo unspecified) yielded an IFI of 3.12%.

In turn, `Cc1cc(C)c2nc(SCC(=O)Nc3ccc4c(c3)OCCO4)cc(C)c2c1` registered an IFI of 17.1%.

Regarding `CC(=O)Nc1ccc(C2NC(=O)NC3=Nc4ccccc4SC(c4ccccc4)=C32)cc1` (stereo unspecified), the IFI is 0%.

As for `Cc1ccc(-c2c[n+](-c3ccccc3)c3n2CCCS3)cc1`, the IFI amounted to 7.69%.

Compound `CCN1/C(=C/c2ccc3cc(OC)ccc3[n+]2CC)Sc2ccc(NC(C)=O)cc21` had an IFI of 5.26%.

Take `O=C(NCCCCNc1ccnc2cc(Cl)ccc12)c1ccccc1Br`: the IFI worked out at 1.85%.

`COc1cc(C(=O)NC(C)C)ccc1OC1CCN(CC(c2ccccc2)c2ccccc2)CC1`: the IFI stood at 2.78%.

Turning to `C=CCSc1nc2sc3c(c2c(=O)n1-c1ccccc1)CCN(CCC)C3`, the IFI came to 7.84%.

In turn, `O=C(NCc1ccccc1)c1cnc(NCCCn2ccnc2)nc1NCCc1ccccc1` showed an IFI of 2.91%.

The compound `Oc1ccc(-c2ccc(F)cc2)cc1CN1CCCCCC1` yielded an IFI of 1.71%.

Turning to `COC(=O)C1=C(C)NC2=C(C(=O)CC(c3ccc(Cl)cc3)C2)C1c1ccc(F)cc1` (stereo unspecified), the IFI was determined as 3.61%.

The compound `C=CCn1c(SCC(=O)c2cc(C)n(-c3ccccc3F)c2C)nc2sc3c(c2c1=O)CCCC3` displayed an IFI of 0%.

With `COc1cccc(-c2ccc(O)c(CNCC3CC4C=CC3C43CC3)c2)n1` (stereo unspecified), the IFI was found to be 4.31%.

With `COCCNCc1cc2cc3c(cc2n(Cc2cccc(F)c2)c1=O)OCO3`, the IFI stood at 5.46%.

Regarding `CCOC(=O)CN1C(=O)c2ccccc2Sc2ncccc21`, the IFI stood at 0%.

For the compound `COc1cc(C=NNc2nc3ccccc3[nH]2)ccc1O`, the IFI stood at 0%.

`COc1ccc(-n2c(=S)[nH]c3cc(C(=O)Nc4cccc(C)c4)ccc3c2=O)cc1OC` returned an IFI of 0%.

`COc1cc(NC(C)CCCN(Cc2ccc(OC)c(OC)c2)C(=O)c2ccccc2)c2ncccc2c1` (stereo unspecified) yielded an IFI of 0.917%.

`CCOC(=O)c1sc(NC(=O)CSc2nnc(CNC(=O)c3ccco3)n2-c2ccc(F)cc2)c(C(=O)OCC)c1C` returned an IFI of 2.35%.

As for `COc1cc(CNNc2nc3cc(Cl)ccc3[nH]2)cc(OC)c1OC`, the IFI turned out to be 0%.

Compound `Cc1cc(Cl)c(S(=O)(=O)N2CCSCC2)cc1OCC(=O)NC1CCCCC1` showed an IFI of 0%.

Take `Fc1ccc(C(CCNc2ncnc3c2[nH]c2ccccc23)c2ccco2)cc1` (stereo unspecified): the IFI worked out at 16.7%.

In turn, `CCCN(CCC)C1=CC(=O)C(C(C)(C)C)=CC1=O` yielded an IFI of 0%.

In the case of `C=CCNC(=O)c1ccc2c(c1)N=C(/C=C/c1ccccc1)N(CCc1cccc(OC)c1)C2`, the IFI worked out at 8.64%.

In turn, `CCOCCCNC(=O)c1cc(NC(=O)c2ccc(Cl)c([N+](=O)[O-])c2)ccc1N1CCCCC1` gave an IFI of 2.78%.

Take `CCOC(=O)c1c(CNc2ccncc2)n(C)c2cc(Br)c(OC(C)=O)cc12`: the IFI turned out to be 3.03%.

With `Cc1ncc([N+](=O)[O-])n1CCOC(=O)c1c(NC(=O)c2ccccc2)sc2c1CCCC2`, the IFI was 1.5%.

As to `CC(C)CN1C(=O)c2ccccc2C(C(=O)Nc2ccccn2)C1c1cccs1` (stereo unspecified), the IFI was 2.33%.

For the compound `COc1ccc(Nc2nc(NN=Cc3cc([N+](=O)[O-])ccc3OC)nc(Nc3ccc([N+](=O)[O-])cc3)n2)cc1`, the IFI was found to be 2.86%.

`CC(C)(C)OCCN(CC(O)CN(Cc1ccccc1)C(=O)NC(c1ccccc1)c1ccccc1)S(=O)(=O)c1ccccc1` (stereo unspecified) yielded an IFI of 0.935%.

With `CCC(c1nc2ccccc2c(=O)n1-c1ccc(Cl)cc1C)N(CCc1ccccc1)C(=O)c1cccc(OC)c1` (stereo unspecified), the IFI was determined as 2.83%.

Compound `Fc1ccc(Nc2nc(OC(C(F)(F)F)C(F)(F)F)nc(OC(C(F)(F)F)C(F)(F)F)n2)cc1` gave an IFI of 1.54%.

As for `O=C1Nc2ccccc2C1=NN=Cc1ccc(-c2ccccc2[N+](=O)[O-])o1`, the IFI turned out to be 0%.

`Cc1nc([P+](c2ccccc2)(c2ccccc2)c2ccccc2)c(N2CCCCC2)o1` returned an IFI of 9.09%.

The compound `CN(C)CCNC(=O)c1ccc(-c2cncc(NCc3ccc(Cl)c(Cl)c3)c2)cc1` gave an IFI of 2.13%.

On to `O=C(Nc1ccc(-c2nc3ccc(-c4nc5ccc(NC(=O)c6cccc7ccccc67)cc5[nH]4)cc3[nH]2)cc1)c1cccc2ccccc12`, for which the IFI was 5.97%.

In turn, `CCCCCCN(CCCCCC)CC(O)c1cc(-c2ccc(Cl)cc2)nc2c(C)cc(C)cc12` (stereo unspecified) had an IFI of 4.54%.

Regarding `Cc1cnc(NC(=O)Nc2ccc(-c3ccc(NC(=O)Nc4ncc(C)s4)c(C)c3)cc2C)s1`, the IFI came to 7.14%.

Compound `CN(C)c1cc[n+](Cc2c(Cl)cccc2Cl)cc1` showed an IFI of 7.14%.

`Cc1ccc(-n2c(-c3ccccc3)cc(C=NNC(=O)c3cccc(O)c3)c2-c2ccccc2)cc1`: the IFI was found to be 0%.

In turn, `COc1ccc(OC)c(-c2ccc(O)c(CN(C)CC(O)c3ccccc3)c2)c1` (stereo unspecified) yielded an IFI of 0.99%.

The compound `Cc1c(CN2CCC(N3CCC(C(=O)NC4CC4)CC3)CC2)[nH]c2c(Cl)cccc12` displayed an IFI of 0%.

Consider `CC[n+]1c(C=CN(C)c2ccccc2)sc2ccc(OC)cc21`, for which the IFI came to 9.38%.

Turning to `Cc1ccc2[nH]c(C)c(Br)c(=O)c2c1`, the IFI worked out at 2.9%.

Regarding `COc1cc(C(=O)NC(c2ccc3c(c2)OCO3)c2cc(Cl)c3cccnc3c2O)cc(OC)c1OC` (stereo unspecified), the IFI was 0%.

Turning to `CC(C)Nc1ccc(Nc2ccnc3cc4ccccc4cc23)cc1`, the IFI is 14.3%.

Compound `O=C(Nc1c2ccccc2nc2ccccc12)c1cc(Cl)ccc1O` came in with an IFI of 3.03%.

Compound `COc1cccc(-c2ccc(O)c(CN3CCC(C)CC3)c2)n1` displayed an IFI of 1.74%.

In the case of `CCOc1ccc2c(C)nc(NC(N)=NC(C)=O)nc2c1`, the IFI was determined as 5.8%.

With `CCOC(=O)C1=C(C)NC2=C(C(=O)C(C(=O)OCC)C(c3ccccc3OC)C2)C1c1ccc(Cl)cc1` (stereo unspecified), the IFI was 3.75%.

Compound `CN(C)CCNc1cc(-c2cccc(C(F)(F)F)c2)nc(-c2ccncc2)n1` returned an IFI of 0%.

For `Clc1nc(Nc2ccccc2)nc(N2CCCCC2)n1`, the IFI was 0%.

Source of the values: ChEMBL document CHEMBL1156829.
